Measurements taken from PubChem BioAssay AID1508624 (National Center for Advancing Translational Sciences (NCATS), 2021).
The campaign covered roughly 48,000 compounds. About 120 (0.25%) were called active. Another 4% or so got no clear call; they are omitted. Calls follow the shape of the dose curve; as a rule, active = well fitted activation curve with a large enough effect; inconclusive = small, poorly fitted or top-dose-only effect, or another doubt; inactive = no such curve, though single readings can be large or run the other way. Some of the results follow.

Assay: Primary qHTS for Identification of Small Molecule Activators of Huntingtin-Antisense Promoter Activity; also: nearly all actives have a fitted effect of over 55% in size
Conditions: HEK293 HTT-AS promoter firefly luciferase reporter, 24 h; series mostly up to 57.5 µM; activity change, positive = activation: at the top concentration
Summary of the method: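 Quantitative HTS used concentration series of up to 57.5 uM final on HEK293 luciferase reporter cells, 24 h at 37 degrees C. Readout was Dual-Glo firefly luminescence.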

Activity change, positive = activation, inactive:
CCOC(=O)c1cccc(NC(=O)c2ccc3nc(C(C)C)oc3c2)c1 -1.73%
O=C(Nc1cccc(Cl)c1Cl)c1cc2nc(-c3ccc(Cl)cc3)cc(C(F)(F)F)n2n1 -2.66%
CCC(C(=O)Nc1nnc2n1CCS2)c1ccccc1 (stereo not drawn) -8.13%
COc1ccc(Cn2c(=O)n(-c3ccccc3C)c(=O)c3c4c(sc32)CN(C(C)=O)CC4)cc1 -38.3%
CCCN(CCC)CCNC(=O)c1cc2c(-c3ccc(Cl)cc3)nn(C)c2s1 -21.4%
O=C(NCCc1nc2ccccc2n1Cc1ccccc1)c1ccco1 -12.2%
CCN(CC)CCNC(=O)C1CCN(c2cc(C)nc3c(-c4ccc(Cl)cc4)c(C)nn23)CC1 -22.3%
Cc1ccc(NS(=O)(=O)c2cnc(N)nc2)c(C)c1 -10.4%
CCc1nn(CC(=O)Nc2cc(C)cc(C)c2)c(=O)c2cc3sccc3n12 -28.1%
Cc1nc(-n2nc(C)c(Cc3ccc4c(c3)OCO4)c2C)sc1C(=O)Nc1cccc(Cl)c1 -16.7%
Cc1ccc(CN2CCCn3nc(C(=O)NCc4ccc(OC(C)C)cc4)cc3C2=O)cc1 -23%
COC(=O)c1ccc(NC(=O)CCc2c(C)nc3c(-c4ccccc4)c(C)nn3c2C)cc1 -34.8%
CCn1c(CNC(=O)c2ccc(OC)cc2)nnc1SCC(=O)Nc1ccccc1 -13.4%
COc1ccc(-n2c(C)c(C(C)=O)c3cc(OC(=O)c4ccc(C)cc4)ccc32)cc1 -13.2%
CCOC(=O)c1ccc(OCC2c3cc(OC)c(OC)cc3CCN2C(=O)c2ccc(S(=O)(=O)N3CCCC3)cc2)cc1 (stereo not drawn) -9.62%
CCC1=Nc2cc(C(=O)NCC(C)c3ccccc3)ccc2Sc2ccc(C)cc21 (stereo not drawn) -22.7%
Cc1ccc(CCNC(=O)c2cn(C)c3ccc(S(=O)(=O)N(C)C4CCCCC4)cc3c2=O)cc1 2.28% [at 11.5 µM, percent change from vehicle, -100% = no light]
COc1ccc(CNS(=O)(=O)c2cc3c(cc2C)N(C)CCO3)cc1 -34.9%
Cc1ccc(Cn2cc(C(=O)c3ccc(F)cc3)c(=O)c3cc4c(cc32)OCO4)cc1 -27.3%
CCOC(=O)Cn1c(=O)n(CC2CCCO2)c2nc(-c3ccccc3F)nc(C(N)=O)c21 (stereo not drawn) -6.1%
CN(C)CCCN1c2ccccc2Sc2ccc(C(F)(F)F)cc21 -23%
Cc1cccc(NC(=O)c2cc(S(=O)(=O)NCc3ccc4c(c3)OCO4)ccc2F)c1C -22.5%
CCOC(=O)Cc1ccc(NC(=O)Nc2ccccc2OCc2cc(=O)n3ccccc3n2)cc1 8.44%
O=C(NCc1ccc2c(c1)CCN2C(=O)c1ccccc1)Nc1cc(F)ccc1F -43.4%
COc1ccccc1-n1c(=O)c2c3c(sc2n(C)c1=O)CN(C(C)=O)CC3 -9.42%
CCn1nnc2cc(C(=O)Nc3cccc(Cl)c3C)ccc21 9.31%
COc1ccc(Cn2c(CNS(=O)(=O)c3ccc(C)c(C)c3)nc3cccnc32)cc1 -16.7%
COc1ccc(-c2nc3scc(CCNS(=O)(=O)c4ccccc4F)n3n2)cc1 -22.4%
CC(Oc1ccc(F)cc1)C(=O)Nc1nc(-c2ccc(F)cc2)ns1 (stereo not drawn) -38.7%
COc1ccc(C)cc1S(=O)(=O)NCC(c1cccs1)S(=O)(=O)c1ccc(C)cc1 (stereo not drawn) -13.9%
COc1ccc(-c2noc(-c3ccc(N4CCCC4)c([N+](=O)[O-])c3)n2)cc1 -16.4%
COc1ccc(NC(=O)N2CCc3c(sc4c3CCCC4)C2c2ccccc2OC)cc1 (stereo not drawn) -11.8%
CC(C)CC(=O)Nc1ccc2nc(SCC(=O)N3CCCC3)sc2c1 -2.05%
CCOc1ccc(N(CC(=O)Nc2cc(C)ccc2C)S(=O)(=O)c2c(C)[nH]c(=O)[nH]c2=O)cc1 -7.13%
Cc1ccc(NC(=O)CCn2nc(C)c(S(=O)(=O)N3CCCCC3)c2C)cc1Cl -13.3%
CCOC(=O)c1c(C)sc(-c2c(-c3cc(C)ccc3C)[nH]c3c2c(=O)n(C)c(=O)n3C)c1O -18.8%
CCN(c1ccc(C)cc1)S(=O)(=O)c1nnc(NC(=O)C2CCCCC2)s1 -7.98%
Cc1ccc(C)c(CN2C(=O)c3ccccc3S(=O)(=O)c3ccc(C(=O)N4CCc5ccccc54)cc32)c1 -21.3%
CCCNC(=O)CSc1nc2ccccc2nc1Cc1ccc(Cl)cc1 -5.94%
CCCCCCCCCCCCCCCCCCOCC(O)CO (stereo not drawn) 2.6%
Cc1ccc(NC(=O)CSc2cn(CC(=O)N3CCCCCC3)c3ccccc23)cc1 0%
CN1Cc2cc(C(=O)N3CCC(C4CCNCC4)CC3)ccc2NC(CC(=O)O)C1=O (stereo not drawn) -3.42%
Cc1cccc(N2CCN(C(=O)c3cnn(-c4cccc(Cl)c4C)c3C3CCNCC3)CC2)c1C -18%
Cc1ccc(-c2noc(CSc3nnc(Cc4ccccc4)n3-c3cccc(C)c3)n2)cc1 -37.1%
O=C(NCC(c1cccnc1)N1CCc2ccccc2C1)C(=O)Nc1ccc(Cl)cc1 (stereo not drawn) -31.8%
Cc1cc(C)c(NC(=O)Cn2c(=O)n(Cc3ccco3)c(=O)c3ccc(C(=O)NC4CCCC4)cc32)c(C)c1 -6.75%
Cn1nnc2c(NCCc3ccccc3)ncnc21 20.7%
CC(C)c1ccc(NC(=O)c2cccc3c2C(=O)N(C2CCCCC2)C3)cc1 -6.14%
CCCc1nc2ccccc2n2c(-c3ccc(C)cc3)c3c(=O)n(C)c(=O)n(C)c3c12 0.718%
Cc1ccc2c(c1)N(CC(=O)NCc1ccccc1Br)C(=O)c1cccnc1O2 -17.9%
CC(=O)c1cccc(NC(=O)c2c(N3CCCC3=O)c3cc(F)ccc3n2C)c1 -18.1%
CCOCCCNC(=O)C(c1ccc(C)cc1)N(Cc1cccs1)C(=O)c1ccc(NC(C)=O)cc1 (stereo not drawn) -12.9%
C[N+](C)(CCOc1ccccc1)Cc1cccs1 -7.49%
C[N+]1(C)CCC(OC(=O)C(O)(c2ccccc2)C2CCCC2)C1 (stereo not drawn) -0.607%
CCSc1ncc(Cl)c(C(=O)Nc2c(C(=O)c3ccc(C)c(F)c3)oc3ccccc23)n1 12.8%
COc1ccccc1NC(=O)c1c(NC(=O)c2ccco2)sc2c1CCC(C(C)(C)C)C2 (stereo not drawn) -4.38%
CCN(CC)C(=O)c1sc2c(c1C)c(=O)n(Cc1ccccc1)c(=O)n2Cc1ccc(Cl)cc1 -36.1%
O=C(CCS(=O)(=O)c1nc(-c2ccc3c(c2)OCO3)cc(C(F)(F)F)n1)Nc1ccccc1F 16.3%
CCN(C(=O)CCn1cnc2onc(-c3ccc(F)cc3)c2c1=O)c1ccc(OC)cc1 -28%
COc1ccc(Nc2nc3ccccc3c3nnc(C)n23)cc1Cl -2.54%
CCc1cccc(-n2nnc(-c3nc(-c4ccccc4Cl)no3)c2N)c1 -1.95%
CCCC(=O)Nc1nnc2n1CCS2 -8.61%
O=C(CSc1nc2c(c(=O)[nH]1)CN(Cc1ccc3c(c1)OCO3)CC2)Nc1cccc(Cl)c1 0%
Cn1nnc2c(NCc3ccccc3Cl)ncnc21 12.1%
CCOC(=O)c1noc2ncnc(N3CCC(C)CC3)c12 1.96%
CCOc1ccc(Oc2nc(NC)nc(N3CCOCC3)n2)nn1 -7.61%
Cc1cccc(Cn2cc3c(=O)n(CC(=O)Nc4ccc(C)c(F)c4)nc-3c3cc(F)ccc32)c1 -9.26%
COc1ccc(CC(=O)NCc2nc3cccnc3n2Cc2ccc(C)cc2)cc1OC -20.5%
COc1ccc(N2CC(NC(=O)c3cc4ccccc4o3)CC2=O)cc1OC (stereo not drawn) -27.6%
CCc1cccc(NS(=O)(=O)c2c(C)nc3sc(CC)nn3c2=O)c1 -21.3%
COc1cc(/C=C(\C#N)C(=O)Nc2ccc(C)cc2)ccc1OCc1cc(=O)n2nc(C)sc2n1 -11.8%
Cc1ccc(NC(=O)Cn2c(=O)n(CCc3ccccc3)c(=O)c3c4c(sc32)CCCC4)c(C)c1 -8.12%
O=c1oc2ccc(Br)cc2cc1-c1csc(-c2ccccc2)n1 11.1%
CCOC(=O)c1cc(NC(=O)c2ccc(C)cc2)c(=O)n2c1oc1ccc(Cl)cc12 -11.8%
Cc1ccc(N2CC(NC(=O)c3ccc(S(=O)(=O)N4CCCCC4)cc3)CC2=O)cc1 (stereo not drawn) -22.2%
COC(=O)c1ccc(NC(=O)c2cc(=O)c3ccc(C)cc3o2)cc1 5.7% [at 11.5 µM, percent change from vehicle, -100% = no light]
C=C1C[C@@]2(O)O[C@@]3(C[C@H]2C(C)C)[C@H](C)CC[C@H]13 -5.93%
CN(C(=O)C1=CC(c2ccc3c(c2)OCO3)=NS(=O)(=O)N1C)c1ccccc1 -12.4%
CC(C)COc1ccc(C(=O)N(Cc2ccc(N(C)C)cc2)Cc2ccco2)cc1 -30.4%
CCc1ccc(NC(=O)CCS(=O)(=O)c2ccc3c(c2)n(C)c(=O)c(=O)n3C)cc1 -16.7%
Cc1ccc(/C=C/c2nc3ccccc3[nH]2)cc1 -71.5%
CC1CCCCN1c1nnc(NC(=O)Nc2ccccc2F)s1 (stereo not drawn) -16.9%
CCC(Cn1nnc2ccccc2c1=O)NC(=O)Nc1ccc(C)c(C)c1 (stereo not drawn) -4.6%
COCCCNC(=O)CSc1nc2cc(OC)c(OC)cc2c2nc(-c3ccccc3)nn12 1.11%
CS(=O)(=O)CCC(C(=O)Nc1cccc(C(F)(F)F)c1)N1Cc2ccccc2C1=O (stereo not drawn) -14%
Cc1ccc(OCc2nc3ccccc3n2CCOc2ccc(Cl)cc2)cc1 -24.4%
CC1CCCN(C(=O)c2cc3c(Cl)nc4ccccc4c3s2)C1 (stereo not drawn) 15.6%
O=C(c1ccco1)c1cn(CCOc2ccc(F)cc2)c2ccccc12 -11.1%
Cc1ccc(-c2nc(SCC(=O)NCc3ccco3)c3c(=O)n(C)c(=O)n(C)c3n2)cc1 -1.8%
CC(C)c1ccc(NC(=O)Cn2c(=O)n(CCc3ccccc3)c(=O)c3ccccc32)cc1 -10.7%
CCc1cccc(CC)c1NC(=O)CN1C(=O)C(=O)c2ccccc21 -14.8%
Cc1ccc(Nc2nnc(-c3ccc(C)c(S(=O)(=O)NCc4nc5ccccc5[nH]4)c3)c3ccccc23)cc1 2.2% [at 11.5 µM, percent change from vehicle, -100% = no light]
Cc1c(Cn2ccnc2)c2ccccc2n1CCC(=O)O 5.29%
